From the RNAGym collection of RNA variant scans (doi:10.7554/elife.90254)
Read counts are not given, so values of variants with three or more changes are uncertain.

B1: OR4K15 (parent)
chain: GUUAACGGUCAUAGGCCAUGGAAACUAGGAGCACCAUUUCGCUGCCAGUGAAGAAAUGAACAAAGAAAAUCUGGGCCAGGCAGGCAUCAAAAGAAAUAGUCUUGCGCUCAACCAGAAAGUCUGUAAUCAUUUUAAGGGUA

Variants of: B1
Test: self-cleavage, relative activity (ratio to wild type); higher = more cleavage; in vitro, sequencing; the parent is a self-cleaving ribozyme

Variant | self-cleavage
GUUAACGGUCAUAGGCCAUGGAAACUAGGAGCACCAUUUCGCUGCUAGUGAAGAAAUGAACAAAGAAAAUCCGGGCCAGGCAGGCAUCAAAAGAAAUAGUCUUGCGCUCAACCGGAAAGUCUGUAAUCAUUCUAAGGGUA | 1.99
GUUAACGGUCAUAGGCCAUGGAAACUAGGAGCACCAUUUCGCUGCAAGUGAAGAAAUGAACAAAGAAAAUCUGGGCCAGGCAGGCAUCAAAAGAAAUAGUCUUGCGCUCAACCAGAGAGUCUGUAAUCAUUUUAAGGAUA | 1.07
GUUAACGGUCAUAGGCCAUGGAAACUAGGAGCACCAUUUCGCUACCAGUGAAGAAAUGAACAAAGAAAAUCUGGGCCAGGCAGGCAUCAAAAGAAAUAGUCUUGCGCUCAACCAGAGAGUCUGUAAUCAUUCUAAGGGUA | 2.04
GUUAACGGUCAUAGGCCAUGGAAACUAGGAGCACCAUUUCGCUGCUAGUGAAGAGAUGAACAAAGAAAAUCAGGGCCAGGCAGGCCUCAAAGGAAAUAGUCUUGCGCUCAACCAGAAAGUCUGUAAUCAUUUUAAGGGUA | 0.14
GUUAACGGUCAUAGGCCAUGGAAACUAGGAGCACCAUUUCGCUGUCAGUGAAGAAAUGAACAAAGAAAAUCUGGGCCAGGCAGGCAUCAGAAGAAAUAGUCUUGCGCUCAACCAGAAAGUCUGUAAUCAAUUUAAGGGUA | 0.36
GUUAACGGUCAUAGGCCAUGGAAACUAGGAGCACCAUUUCGCUACCAGUGAAGAAGUGAACAAAGAAAAUCUGGGCCAGGCAGGCAUCAAAAGAAAUAGUCUUGCGCUCAACCAGAAAGUCCGUAAUCAUUUUAAGGGUA | 1.91
GUUAACGGUCAUAGGCCAUGGAAACUAGGAGCACCAUUUCGCUGCUAGUGAGGAAAUGAACAAAGAAAAUCUGGGCCAGGCAGGCAUCAAAAGAAAUAGUCUUGCGCUCAACCAGGAAGUCUGUAAUCAUUUUAAGGGUA | 1.28
GUUAACGGUCAUAGGCCAUGGAAACUAGGAGCACCAUUUCGCUACCAGUGAAGAAAUGAACAAAGAAAACCUGGGCCAGGCAGGCAUCAAAAGAGAUAGUCUUGCGCCCAACCAGAAAGUCUGUAAUCAUUUUAAGGGUA | 0.01
GUUAACGGUCAUAGGCCAUGGAAACUAGGAGCACCAUUUCGCUGCUAGUGAAGAAAUGAACAAAGAAAAUCUGGGCCAGGCAGGCAUCAAAAGAGAUAGUCUCGCGCUCAACCAGAAAGUCUGUGAUCAUUUUAAGGGUA | 1.16
GUUAACGGUCAUAGGCCAUGGAAACUAGGAGCACCAUUUCGCUGCUAGUGAAGAAAUGAACAAAAAAAAUCUGGGCCACGCAGGCGUCAAAAGAAAUAGUCUUGCGCUCAACCAGAAAGUCUGUAAUCAUUUUAAGGGUA | 0.09
GUUAACGGUCAUAGGCCAUGGAAACUAGGAGCACCAUUUCGCUCCCAGUGAAGAAAUGAACAAAGAAAAUCUGGGCCAGGCAGGCAUCAAAAGGAGUAGUCUUGCGCUCAACCAGGAAGUCUGUAAUCAUUUUAAGGGUA | 0.3
GUUAACGGUCAUAGGCCAUGGAAACUAGGAGCACCAUUUCGCUCCCAGUGAAGAAAUGAACAAAGAAAAUCUGGGCCGGGCAGGCAUCAAAAGAAAUAGUCUUGCGCUCAACCAGAAAGUCUGUAAUCAUUUUAAGAGUA | 0.16
GUUAACGGUCAUAGGCCAUGGAAACUAGGAGCACCAUUUCGCUGACAGUGAAGAAAUGAGCAAAGAAAAUCUGGGCCAGGCAGGCAUCAAAAGAAAUAGUCUUGCGCUCAACCAGAAAGUCUGUAAUUAUUUUAAGGGUA | 0.17
GUUAACGGUCAUAGGCCAUGGAAACUAGGAGCACCAUUUCGCUUCCAGUGAAGAAAUGAACAAAGGAAAUCUGGGCCAGGCAGGCAUCAACAGAAAUAGUCUUGCGCUCAACCAGAAAGUCUGUAAUCAUUUUAAGGGUA | 2.03
GUUAACGGUCAUAGGCCAUGGAAACUAGGAGCACCAUUUCGCUGCCCGUGAAGGAAUGAACAAAGAAAAUCUGGGCCAGGCAGGCAUCAAAAGAAAUAGCCUUGCGCUCAACCAGAAAGUCUGUAAUCACUUUAAGGGUA | 2.76
GUUAACGGUCAUAGGCCAUGGAAACUAGGAGCACCAUUUCGCUGCUAGUGUAGAAAUGAACAAAGAAAAUCUGGGCCAGGCAGGCAUCAAAAGAAAUAGUCUUGCGCUCAGCCAGAAAGUCUGUAAUCAUUUUAAGGGUA | 0.01
GUUAACGGUCAUAGGCCAUGGAAACUAGGAGCACCAUUUCGCUACCAGUGACGAAAUGAACAAGGAAAGUCUGGGCCAGGCAGGCAUCAAAGGAAAUAGUCUUGCGCUCAACCAGAAAGUCUGUAAUCAUUUUAAGGGUA | 1.24
GUUAACGGUCAUAGGCCAUGGAAACUAGGAGCACCAUUUCGCUACCAGUGAAGAAAUGAACGAAGAGAAUCUGGGCCAGGCAGGCAUCAAAGGAAAUAGUCUUGCGCUCAACCAGAAAGUCUGUAAUCAUCUUAAGGGUA | 1.32
GUUAACGGUCAUAGGCCAUGGAAACUAGGAGCACCAUUUCGCUACCAGUGGAGAAAUGAACAAAGAAAAUCUGGGCCAGGCAGGCAUCAAAAGAAAUGGUCUUGCGCGCAACCAGAAAGUCUGUAAUCAUUUUAAGGGUA | 0.01
GUUAACGGUCAUAGGCCAUGGAAACUAGGAGCACCAUUUCGCUGUCAGUGAAGAAACGAACAAAGAGAAUCUGGGCCAGGCAGGCAUCAAAAGAAAUAGUCUUGCGCUCAACCAGAAAGUCUGUAAUCAUUUUAAGGGUA | 1.02
GUUAACGGUCAUAGGCCAUGGAAACUAGGAGCACCAUUUCGCUGCUAGUGAGGAAAUGAGCAAAGAAAAUCUGGGCCAGGCAGGCAUCAAAAGAAAUAGUCUUGCGCUCAACCAGAAAGUCUGUAAUCAUUUUAAGGGCA | 1.4
